Measurements reported in paper PMC4336329 (PLoS ONE, 2015).
In all, about 310,000 compounds went through this assay and about 14,000 (4.5%) showed an effect of 50% or more. The effect is printed as a negative number. The list shows a part of the results.

What follows are molecules tested against human ether-à-go-go-related gene (hERG) potassium channel (human, UniProt Q12809) (assay: primary screen, population patch clamp on CHO cells stably expressing hERG).
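Further: peak tail current of the secondary pulse compared with the same well before compound.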

Sequence of human ether-à-go-go-related gene (hERG) potassium channel (Q12809 whole entry, looked up): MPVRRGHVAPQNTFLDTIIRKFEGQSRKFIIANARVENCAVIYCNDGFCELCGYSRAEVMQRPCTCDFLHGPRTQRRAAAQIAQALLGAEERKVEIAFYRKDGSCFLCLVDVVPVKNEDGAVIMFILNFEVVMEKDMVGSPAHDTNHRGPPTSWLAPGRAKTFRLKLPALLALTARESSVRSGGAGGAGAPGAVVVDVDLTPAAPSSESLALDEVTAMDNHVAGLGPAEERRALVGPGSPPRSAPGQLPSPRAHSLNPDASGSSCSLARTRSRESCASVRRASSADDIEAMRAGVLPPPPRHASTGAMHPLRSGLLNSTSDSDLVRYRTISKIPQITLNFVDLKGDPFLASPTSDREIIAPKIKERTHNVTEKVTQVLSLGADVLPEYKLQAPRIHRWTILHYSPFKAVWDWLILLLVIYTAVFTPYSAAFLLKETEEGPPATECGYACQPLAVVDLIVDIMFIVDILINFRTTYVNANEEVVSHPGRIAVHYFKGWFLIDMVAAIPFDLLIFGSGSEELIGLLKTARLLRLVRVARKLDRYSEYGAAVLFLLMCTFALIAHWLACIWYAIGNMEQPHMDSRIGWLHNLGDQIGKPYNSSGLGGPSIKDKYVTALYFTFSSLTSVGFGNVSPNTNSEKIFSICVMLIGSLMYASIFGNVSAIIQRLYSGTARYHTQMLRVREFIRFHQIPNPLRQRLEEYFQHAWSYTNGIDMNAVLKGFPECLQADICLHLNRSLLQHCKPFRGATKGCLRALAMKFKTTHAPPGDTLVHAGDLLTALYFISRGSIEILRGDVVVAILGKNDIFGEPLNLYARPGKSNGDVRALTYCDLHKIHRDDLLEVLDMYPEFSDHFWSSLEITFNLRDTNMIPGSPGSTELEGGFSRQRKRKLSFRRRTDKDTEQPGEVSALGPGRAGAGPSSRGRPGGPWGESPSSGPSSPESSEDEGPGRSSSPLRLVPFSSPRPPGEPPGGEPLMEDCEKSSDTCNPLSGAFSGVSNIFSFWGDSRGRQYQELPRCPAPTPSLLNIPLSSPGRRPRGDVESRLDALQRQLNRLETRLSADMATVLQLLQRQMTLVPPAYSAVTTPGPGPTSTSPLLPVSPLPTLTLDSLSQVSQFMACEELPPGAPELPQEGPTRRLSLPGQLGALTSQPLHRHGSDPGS

| SMILES | hERG current change (%, negative = inhibition) at 10uM [%] |
| --- | --- |
| O=C(Cn1ncc2c(=O)oc3ccccc3c21)N1CCN(C(=O)c2ccco2)CC1 | -73.6 |
| CN(C)CCNC(=O)c1cccn(Cc2cc(C(F)(F)F)cc(C(F)(F)F)c2)c1=O | -14.8 |
| Br.O=[N+]([O-])c1cccc(-n2nnnc2CN2CCCC2)c1 | -7.57 |
| Cc1cccc(C2c3[nH]c4ccccc4c3CCN2Cc2ccc(C)s2)n1 (stereo not drawn) | 12.7 |
| CCn1cc(C(=O)O)c(=O)c2cnc(N3CCN(C(=S)NC(=O)c4ccc(Cl)cc4Cl)CC3)nc21 | 14.9 |
| CCc1ccc(NC(=O)CC2NCCNC2=O)cc1 (stereo not drawn) | 2.24 |
| CCOC(=O)C1=C(C)N=C2c3ccccc3C(=O)C2C1c1ccc(Cl)cc1 (stereo not drawn) | 4.86 |
| Cn1c(=NC(=O)CCS(=O)(=O)c2ccccc2)sc2cc(F)ccc21 | 9.26 |
| O=C(Cc1csc(-c2ccccc2)n1)NCc1cccs1 | -8.31 |
| CCCNC(=O)C1CCN(S(=O)(=O)c2cccs2)CC1 | 28.1 |
| CCCCN(C(=O)CCCc1nc2ccccc2s1)c1c(N)n(CCCC)c(=O)[nH]c1=O | 11.6 |
| CN(CC(=O)NCc1ccc(F)cc1)S(=O)(=O)c1ccc2c(c1)c(=O)n(C)c(=O)n2C | -19 |
| Cc1cc(C)cc(C(=O)NCC(=O)OCN2C(=O)c3ccccc3C2=O)c1 | 8.9 |
| Cc1cc(C)cc(OCCn2nnc3ccccc32)c1 | 14.7 |
| Cc1ccc(S(=O)(=O)NCC(=O)Nc2ccc3c(c2)OCO3)cc1 | 8.87 |
| COCC(C)NC(=O)CCS(=O)(=O)c1nc(-c2ccc(OC)cc2)cc(C(F)(F)F)n1 (stereo not drawn) | 9.82 |
| CCc1ccc(OC(=O)c2cccnc2)cc1 | 21.6 |
| Fc1ccccc1OCCSc1nc2ccccc2o1 | 13.3 |
| O=C(CSc1nnc(SCc2ccccc2)s1)N/N=C/c1ccc(C(=O)O)cc1 | -28.2 |
| Cc1ccc([N+](=O)[O-])cc1S(=O)(=O)Nc1ccc(C(=O)N2CCN(C(=O)c3ccco3)CC2)cc1 | -10.4 |
| O=C(NCCc1ccccc1)/C(=C\c1cccc([N+](=O)[O-])c1)NC(=O)c1ccco1 | -78.6 |
| COc1ccc(COc2cccnc2N)cc1 | -15.4 |

| SMILES | hERG current change (%, negative = inhibition) at 10uM [%] |
| --- | --- |
| O=S(=O)(NCCc1ccccc1F)c1cccc(S(=O)(=O)N2CCOCC2)c1 | -18.4 |
| O=C(Nc1ccc2ccccc2n1)c1ccccc1Cl | 13 |
| CN(C)CCC[C@]1(c2ccc(F)cc2)OCc2cc(C#N)ccc21 | -33.3 |
| CCOc1ccccc1NC(=O)c1ccc2[nH]c(C)c(C)c2c1 | 17.9 |
| CC(=O)Nc1nc(CC(C)C)cc2c1c(=O)oc1ccccc12 | 9.76 |
| Cc1ccc(OCC(=O)NCCCNC(=O)c2ccccn2)cc1C | 8.06 |
| CC1(C)Oc2ccc3ccc(=O)oc3c2/C(=C/Nc2ccccc2)C1=O | 5.39 |
| CSc1nc(-c2ccc(Cl)cc2Cl)[nH]c(=O)c1C#N | 27.5 |
| Cc1cc(C)n2c(Br)c(CSc3nc4ccccc4s3)nc2n1 | -76.7 |
| Cc1cccc(NC(=O)CSc2nc(COc3ccccc3)nc3ccccc23)c1C | 13.5 |
| COc1cc(C(=O)OC2CCCCC2=O)cc(OC)c1C (stereo not drawn) | 4.2 |
| O=C(CSc1nc2c(c(=O)n1-c1ccccc1)SCC2)NCC1CCCO1 (stereo not drawn) | 30.3 |
| O=C(CSCc1ccc(Cl)cc1)Nc1ccc(S(=O)(=O)N2CCOCC2)cc1 | -25.6 |
| CSc1ccc(C(=O)C2CCCN(C(=O)c3cccc(N4CCOCC4)c3)C2)cc1 (stereo not drawn) | -30.7 |
| CC(Sc1cccc[n+]1[O-])C(=O)Nc1ccc([N+](=O)[O-])cc1Cl (stereo not drawn) | 9.94 |
| CCCCC(CCCC)=N/N=C/c1c(O)n(CC)c2cc(C3=NNC(=O)CC3)ccc12 | 5.04 |
| Cc1cc(C)c2cc(CN(CCO)C(=O)Nc3ccc(Cl)cc3)c(=O)[nH]c2c1 | -1.76 |
| Cc1ccc2[nH]c3c(=O)n(CCN4CCOCC4)cnc3c2c1 | -17.5 |
| O=C1O/C(=C\c2ccccc2)c2ccccc21 | -57.8 |
| COc1ccc(C2C(C(=O)N3CCCCC3)CCC(=O)N2c2cc(OC)c(OC)c(OC)c2)cc1 (stereo not drawn) | 0.0986 |
| COc1ccc(C2=NN(Cc3c(F)cccc3Cl)C(=O)CC2)cc1 | -6.32 |
| Cc1cccc(C)c1NC(=O)c1ccc(-n2cncn2)nc1 | -7.98 |

| SMILES | hERG current change (%, negative = inhibition) at 10uM [%] |
| --- | --- |
| CCOc1ccc(NS(=O)(=O)c2ccc(C(=O)NCc3cccnc3)cc2)cc1 | -17.6 |
| O=c1cc(CSc2ccccc2)nc(-c2ccncc2)[nH]1 | 15.3 |
| COc1ccc(S(=O)(=O)c2c(O)c3ccc(C(=O)Nc4cccc(F)c4)cc3[nH]c2=O)cc1 | 9.3 |
| CCOC(=O)c1ccc(NC(=O)CSc2nnc(CCc3ccc(C)o3)n2-c2ccccc2)cc1 | -15.4 |
| O=C1CN(C(=O)c2ccccc2F)c2ccccc2N1 | 15 |
| CCCc1nnc(NC(=O)CCC(=O)N2CCCCCC2)s1 | -0.608 |
| CN1CCN(C(=O)c2cc(S(=O)(=O)Nc3ccccc3F)c(Cl)cc2Cl)CC1 | -0.7 |
| Cc1ccc(C(C)C)c(OCC(=O)N2CCN(c3ncccn3)CC2)c1 | -44 |
| Clc1ccc(-c2nnc3n2CCCCC3)cc1 | -7.83 |
| CCCCCCNC1=NCCS1 | -10.3 |
| COc1ccc(C2C(C(=O)N3CCC(C(N)=O)CC3)CC(=O)N2c2ccc(OC)cc2)cc1 (stereo not drawn) | -1.19 |
| O=C(Cn1cnc2c(oc3ccccc32)c1=O)NCC1CCCO1 (stereo not drawn) | -7.69 |
| COC(=O)C1=C(c2cccc(OC)c2OC)C[C@@H]2CC[C@H]1N2C(=O)NCc1ccc(C(F)(F)F)cc1 | -17.5 |
| COc1ccc(CCNC(=O)CSc2nc(O)c(C(C)C)c(=O)[nH]2)cc1OC | 17.2 |
| COc1cc(OC)c(NC(=O)Cn2cnc3sc(C)c(S(=O)(=O)N4CCOCC4)c3c2=O)cc1Cl | -4.48 |
| COc1cc(-c2cc(C(=O)N(C)Cc3ccccc3)c3ccccc3n2)cc(OC)c1OC | -0.748 |
| COc1ccc2nc(NC(=O)c3ccc(NS(=O)(=O)c4cccs4)cc3)sc2c1 | 0.0903 |
| COc1ccc(/C=C2\SC(=O)N(CCn3cnnn3)C2=O)cc1 | -10.4 |
| CCC(CC)C(=O)Nc1nc(-c2ccc3c(c2)CCN3C(=O)C2CC2)c(C)s1 | 12.2 |
| O=C(Nc1cccnc1)c1ccc(COc2ccccc2Cl)o1 | -3.16 |
| O=C(Nc1ccccc1-c1ccccc1)c1ccc(=O)[nH]n1 | -1.11 |
| CCOC(=O)[C@@H]1[C@H]2COc3ccc(Br)cc3[C@H]2N2C(=O)N(c3ccc(Cl)cc3)C(=O)[C@@]12C | 15.8 |

| SMILES | hERG current change (%, negative = inhibition) at 10uM [%] |
| --- | --- |
| Cl.Cn1cccc1CNCCc1ccc(F)cc1 | -4.73 |
| CSc1nc(N)nc(C2CC2)n1 | 8.14 |
| Cc1ccccc1OCCn1c(=O)oc2ccccc21 | -3.35 |
| CC1(C)c2ccccc2N2CCC(=O)NC21/C=C/c1ccco1 (stereo not drawn) | 1.08 |
| CC1CCN(S(=O)(=O)c2cccc(C(=O)NCc3cccs3)c2)CC1 | -38.5 |
| O=C(OCC(=O)N1CCN(C(=O)c2ccco2)CC1)c1ccccc1Cc1ccccc1 | -56.3 |
| Cc1ccc(-n2nnnc2SCC(=O)NC2CCCc3ccccc32)c(C)c1 (stereo not drawn) | -7.69 |
| O=C(NC1CCCCC1)c1cc2ccccc2cc1O | -12.7 |
| CCCc1cc(=O)[nH]c(SCC(=O)Nc2nc3ccc(OCC)cc3s2)n1 | 22.8 |
| O=S(NCc1ccccc1)C12CC3CC(CC(C3)C1)C2 (stereo not drawn) | 9.4 |
| O=C(/C=C/c1ccccc1[N+](=O)[O-])NC1CCCC1 | -13.2 |
| OCC1(Cc2ccccc2)CCCN(Cc2c[nH]c3ccccc23)C1 (stereo not drawn) | -27 |
| O=C(Nc1cccc([N+](=O)[O-])c1)C1COc2ccccc2O1 (stereo not drawn) | -86.3 |
| CCC(CC)c1nnc(NC(=O)CS(=O)(=O)Cc2ccccc2)s1 | 7.12 |
| COc1nn(-c2ccccc2)c(=O)c(Cl)c1Cl | 15.7 |
| Cc1ccc(C)c(-n2c(SCC(=O)NC(C(=O)O)C(C)C)nnc2-c2cccc(Cl)c2)c1 (stereo not drawn) | 44.3 |
| CCCCCOc1ccc(/C=c2\sc3nc(=O)c(-c4ccccc4)nn3c2=O)cc1OC | 1.89 |
| CC(NC(=O)COc1ccc([N+](=O)[O-])cc1)c1ccccc1 (stereo not drawn) | -34.5 |
| Cc1cccc(NC(=O)C2CCN(S(=O)(=O)c3c(C)c(C)cc(C)c3C)CC2)n1 | -1.12 |
| COc1ccccc1NC(=O)CCc1nc(-c2cccs2)no1 | -16.9 |
| CC1CCCCN1CC(O)c1c[nH]c2ccccc12 (stereo not drawn) | 8.14 |
